Reference: EPA's CvTdb concentration-time database
This continues a long series; more values of the same kind are listed elsewhere.

Key:
Rat [1] = test: concentration in brain after dosing; settings: 2 min; dosed: 2-Methyltetrahydrofuran; 30 mg/kg; oral; Female; F344
Rat [2] = test: concentration in brain after dosing; settings: 2 min; dosed: 2-Methyltetrahydrofuran; 10 mg/kg; iv; Male; F344
Rat [3] = test: concentration in brain after dosing; settings: 0.25 h; dosed: 2-Methyltetrahydrofuran; 30 mg/kg; oral; Female; F344
Rat [4] = test: concentration in brain after dosing; settings: 0.75 h; dosed: 2-Methyltetrahydrofuran; 30 mg/kg; oral; Female; F344
Rat [5] = test: concentration in brain after dosing; settings: 2 min; dosed: 2-Methyltetrahydrofuran; 10 mg/kg; iv; Female; F344
Rat [6] = test: concentration in brain after dosing; settings: 10 min; dosed: 2-Methyltetrahydrofuran; 30 mg/kg; oral; Male; F344
Rat [7] = test: concentration in plasma after dosing; settings: 5 min; dosed: 2-Methyltetrahydrofuran; 10 mg/kg; iv; Female; F344
Rat [8] = test: concentration in plasma after dosing; settings: 0.25 h; dosed: 2-Methyltetrahydrofuran; 30 mg/kg; oral; Female; F344
Rat [9] = test: concentration in plasma after dosing; settings: 1.5 h; dosed: 2-Methyltetrahydrofuran; 100 mg/kg; oral; Male; Harlan Sprague Dawley
Rat [10] = test: concentration in plasma after dosing; settings: 0.75 h; dosed: 2-Methyltetrahydrofuran; 10 mg/kg; oral; Female; F344
Rat [11] = test: concentration in plasma after dosing; settings: 4 min; dosed: 2-Methyltetrahydrofuran; 10 mg/kg; oral; Female; F344
Rat [12] = test: concentration in plasma after dosing; settings: 5 min; dosed: 2-Methyltetrahydrofuran; 10 mg/kg; iv; Male; F344
Rat [13] = test: concentration in plasma after dosing; settings: 2 min; dosed: 2-Methyltetrahydrofuran; 10 mg/kg; oral; Male; F344
Rat [14] = test: concentration in plasma after dosing; settings: 0.75 h; dosed: 2-Methyltetrahydrofuran; 30 mg/kg; oral; Male; F344
Rat [15] = test: concentration in plasma after dosing; settings: 0.5 h; dosed: 2-Methyltetrahydrofuran; 30 mg/kg; oral; Male; F344
Rat [16] = test: concentration in plasma after dosing; settings: 3 h; dosed: 2-Methyltetrahydrofuran; 10 mg/kg; iv; Female; F344
Rat [17] = test: concentration in plasma after dosing; settings: dosed: Bromochloroacetic acid, 100 mg/kg, oral, Male, F344
Rat [18] = test: concentration in plasma after dosing; settings: 10 min; dosed: Bromochloroacetic acid; 10 mg/kg; iv; Male; F344
Rat [19] = test: concentration in plasma after dosing; settings: dosed: Bromochloroacetic acid, 100 mg/kg, oral, Male, F344; remark: listed apart in the source
Rat [20] = test: concentration in plasma after dosing; settings: dosed: Bromochloroacetic acid, 100 mg/kg, oral, Male, F344; remark: listed apart in the source
Rat [21] = test: concentration in plasma after dosing; settings: 5 min; dosed: Bromochloroacetic acid; 10 mg/kg; iv; Male; F344
Rat [22] = test: concentration in plasma after dosing; settings: 2 min; dosed: Bromochloroacetic acid; 10 mg/kg; iv; Male; F344
Rat [23] = test: concentration in plasma after dosing; settings: 3 h; dosed: Fluorotelomer alcohol 8+2; 80 mg/kg; oral; Female; Harlan Sprague Dawley
Rat [24] = test: concentration in plasma after dosing; settings: dosed: Fluorotelomer alcohol 8+2, 160 mg/kg, oral, Female, Harlan Sprague Dawley
Rat [25] = test: concentration in plasma after dosing; settings: dosed: Fluorotelomer alcohol 8+2, 40 mg/kg, oral, Female, Harlan Sprague Dawley
Rat [26] = test: concentration in plasma after dosing; settings: dosed: Fluorotelomer alcohol 8+2, 40 mg/kg, oral, Female, Harlan Sprague Dawley; remark: listed apart in the source
Rat [27] = test: concentration in plasma after dosing; settings: dosed: Fluorotelomer alcohol 8+2, 40 mg/kg, oral, Female, Harlan Sprague Dawley; remark: listed apart in the source
Rat [28] = test: concentration in plasma after dosing; settings: dosed: Formamide, 36 mg/kg, oral, Female, Harlan Sprague Dawley
Rat [29] = test: concentration in plasma after dosing; settings: dosed: Formamide, 300 mg/kg, oral, Female, Harlan Sprague Dawley
Rat [30] = test: concentration in plasma after dosing; settings: dosed: Formamide, 36 mg/kg, oral, Female, Harlan Sprague Dawley; remark: listed apart in the source
Rat [31] = test: concentration in plasma after dosing; settings: dosed: Formamide, 600 mg/kg, oral, Male, Harlan Sprague Dawley
Rat [32] = test: concentration in plasma after dosing; settings: dosed: Formamide, 90 mg/kg, iv, Male, Harlan Sprague Dawley
Rat [33] = test: concentration in plasma after dosing; settings: dosed: Pyridine, 5 mg/kg, oral, Female, F344
Rat [34] = test: concentration in plasma after dosing; settings: 1 h; dosed: Pyridine; 200 mg/kg; oral; Female; F344
Rat [35] = test: concentration in plasma after dosing; settings: 4 h; dosed: Pyridine; 10 mg/kg; oral; Male; Harlan Sprague Dawley
Rat [36] = test: concentration in plasma after dosing; settings: 2 min; dosed: Pyridine; 10 mg/kg; oral; Male; Harlan Sprague Dawley
Rat [37] = test: concentration in plasma after dosing; settings: dosed: Pyridine, 100 mg/kg, oral, Male, F344

Compound CC1CCCO1 (stereo unspecified) [2-Methyltetrahydrofuran] has a concentration in brain (Rat [1]) of 6.51 µg/g, a concentration in brain (Rat [2]) of 8.86 µg/g and a concentration in brain (Rat [3]) of 9.56 µg/g. It also gave a concentration in brain (Rat [4]) of 8.04 µg/g, a concentration in brain (Rat [5]) of 7.86 µg/g and a concentration in brain (Rat [6]) of 13.5 µg/g. It also gave a concentration in plasma (Rat [7]) of 11600 ng/mL, a concentration in plasma (Rat [8]) of 22700 ng/mL and a concentration in plasma (Rat [9]) of 45500 ng/mL. The concentration in plasma (Rat [10]) was 1430 ng/mL, the concentration in plasma (Rat [11]) was 2750 ng/mL and the concentration in plasma (Rat [12]) was 9960 ng/mL. The concentration in plasma (Rat [13]) was 1250 ng/mL, the concentration in plasma (Rat [14]) was 15400 ng/mL and the concentration in plasma (Rat [15]) was 20600 ng/mL. It also gave a concentration in plasma (Rat [16]) of 33.5 ng/mL.

Compound O=C(O)C(Cl)Br (stereo unspecified) [Bromochloroacetic acid] has a concentration in plasma (Rat [17]; 2 min) of 2410 ng/mL, a concentration in plasma (Rat [17]; 1.5 h) of 30700 ng/mL and a concentration in plasma (Rat [18]) of 5380 ng/mL. It also gave a concentration in plasma (Rat [19]; 5 min) of 6470 ng/mL, a concentration in plasma (Rat [19]; 3 h) of 11200 ng/mL and a concentration in plasma (Rat [20]; 2 min) of 2140 ng/mL. It also gave a concentration in plasma (Rat [20]; 1.5 h) of 22600 ng/mL, a concentration in plasma (Rat [21]) of 13700 ng/mL and a concentration in plasma (Rat [22]) of 25500 ng/mL.

Compound OCCC(F)(F)C(F)(F)C(F)(F)C(F)(F)C(F)(F)C(F)(F)C(F)(F)C(F)(F)F [Fluorotelomer alcohol 8+2] has a concentration in plasma (Rat [23]) of 916 ng/mL, a concentration in plasma (Rat [24]; 0.75 h) of 1940 ng/mL and a concentration in plasma (Rat [24]; 12 h) of 703 ng/mL. It also gave a concentration in plasma (Rat [25]; 0.25 h) of 158 ng/mL, a concentration in plasma (Rat [25]; 6 h) of 112 ng/mL and a concentration in plasma (Rat [26]; 0.75 h) of 688 ng/mL. The concentration in plasma (Rat [26]; 12 h) was 81.6 ng/mL, the concentration in plasma (Rat [27]; 1 h) was 479 ng/mL and the concentration in plasma (Rat [27]; 24 h) was 2.4 ng/mL.

Work on NC=O [Formamide] yielded a concentration in plasma (Rat [28]; 0.5 h) of 38700 ng/mL, a concentration in plasma (Rat [28]; 48 h) of 2700 ng/mL and a concentration in plasma (Rat [29]; 5 min) of 56900 ng/mL. For the same compound, the concentration in plasma (Rat [29]; 2 h) was 232000 ng/mL, the concentration in plasma (Rat [30]; 10 min) was 21600 ng/mL and the concentration in plasma (Rat [30]; 20 h) was 14600 ng/mL. For the same compound, the concentration in plasma (Rat [31]; 5 min) was 94400 ng/mL, the concentration in plasma (Rat [31]; 2 h) was 903000 ng/mL and the concentration in plasma (Rat [32]; 8 h) was 86700 ng/mL. The concentration in plasma (Rat [32]; 12 h) was 70600 ng/mL.

For c1ccncc1 [Pyridine], the concentration in plasma (Rat [33]; 0.5 h) was 3450 ng/mL, the concentration in plasma (Rat [33]; 6 h) was 2000 ng/mL and the concentration in plasma (Rat [34]) was 84800 ng/mL. For the same compound, the concentration in plasma (Rat [35]) was 384 ng/mL, the concentration in plasma (Rat [36]) was 5020 ng/mL and the concentration in plasma (Rat [37]; 1 h) was 49700 ng/mL. For the same compound, the concentration in plasma (Rat [37]; 8 h) was 64100 ng/mL.
